Sequences and labels used below:
T1: UNK ZnF1-3 (human, UniProt Q9C0B0 31-174)
T1 sequence: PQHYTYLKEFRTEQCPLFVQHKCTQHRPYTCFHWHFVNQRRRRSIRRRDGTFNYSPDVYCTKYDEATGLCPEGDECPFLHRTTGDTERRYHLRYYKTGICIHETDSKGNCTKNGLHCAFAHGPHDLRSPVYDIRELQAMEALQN

B1: chr11:29606707:29606708:+_ENSMUSG00000020458_ENSMUST00000102843|mus_mus|motif|central (ssRNA)
RNA: GGGAGUUCUACAGUCCGACGAUCCAUGGCUGACUCUCCUUUUGGGGAGCCAUUGAAAGAUGAUCCCAUUUCUGAGUAUUCGGAUACUGAAAACUCUGCUGACUCUCUAUUUACAAAUGGAUUUGUUGCCCUCUCUGGCAAUUCCAACAGAGGAUUGAGCAUCA
B2: chr13:31725248:31725249:-_ENSG00000120694_ENST00000320027|perfect_dup|FALSE|FALSE (ssRNA)
RNA: GGGAGUUCUACAGUCCGACGAUCUUUGGAUUUUGCAUCCAAUUUGUACUUGGUUUUAAAUUCAGCACAAAAAUGUUCUACUAGCUUCUCAUCAAAGUUCUUUCCUCCUAAGAAGGGAUCAAAAGCUGUGCCUAGAACCUUCAGCAACAGAGGAUUGAGCAUCA
B3: 96782924_96783505_4140_CDS_ENSG00000066739_ENST00000359933|human|control|control (ssRNA)
RNA: GGGAGUUCUACAGUCCGACGAUCAAAACCUUCAUAUUUUGUCACACAAAAUAAUGAACCACUAUUGAACUCUAACCAGAAUUCACCAUGCUUGUUUUCCAACAGAUCUCCAUUAUCUUGCUUCACAUCUGUGAACACUGCUAUCAACAGAGGAUUGAGCAUCA
B4: chr6:41757443:41757444:+_ENSG00000214736_ENST00000398881|hu_mus|hu_hu_hu_mus_False|58_98 (ssRNA)
RNA: GGGAGUUCUACAGUCCGACGAUCGAACCGUGCAGAGACCAGAGAAUAGCCGACACUGGGGGAUGGGGGGGCAGUGGGAAACUAGGCAGGCAAGGAGAGGGAGUCAACUUCAGCUGCCACUCAGGUAGGAUCUUGUGGUCACAGCAACAGAGGAUUGAGCAUCA
B5: 60832829_60832949_1000_3pUTR_ENSMUSG00000072437_ENSMUST00000088237|mouse|control|control (ssRNA)
RNA: GGGAGUUCUACAGUCCGACGAUCGGCUGUCCCUGUUGCUGCGCGGCGGCGGGCGGACGGUGGGCGGUGGCACUUUGGAGAGCGGGCAAUACUUGAUGGUAUGUGCGUUGUCGCCGCUGGCGCCGCACAGGGGGCACGUGUAGCCAACAGAGGAUUGAGCAUCA
B6: chr14:37946427:37946428:-_ENSMUSG00000041028_ENSMUST00000165649|mus_mus|FALSE|FALSE (ssRNA)
RNA: GGGAGUUCUACAGUCCGACGAUCUGAUGGUUCCAAGGCUGCCUCUUUCAGUUCUUGUCCAGUUUUCCCACGGUGAGUCCUAAUUCUUGUCUUGGUAGCAUAUUCCCUGCUGGGUGUUACGAGCCAUUGGUUCUUUGUGAUGGACAACAGAGGAUUGAGCAUCA
B7: 85877279_85877843_391_CDS_ENSMUSG00000054226_ENSMUST00000067137|mouse|control|control (ssRNA)
RNA: GGGAGUUCUACAGUCCGACGAUCGUUAGUUUCUGAAAUGCCAAAUUUCUUCAAGGCCUCUGAAAUAUUAUUAUUUGGGGAGAGGUUGAAGAUAAUUUCAGUAGACAGAGUUCUUGUCUUCAUUUUUCCCAGUCUGUGGAGAUGCAACAGAGGAUUGAGCAUCA
B8: chr18:24770415:24770416:+_ENSMUSG00000024271_ENSMUST00000025120|mus_mus|FALSE|FALSE (ssRNA)
RNA: GGGAGUUCUACAGUCCGACGAUCACAAACAGGUCCUUCAUGGCCUUGGAGACGGACUGAUUUUAAAACCUGAUUAUUCUCUAGUUCCCAAUGAAUCACCCGAUUGUCAGAUCCUCCAGACACCAGCUCAUUGGAAGGGGAGCCCAACAGAGGAUUGAGCAUCA
B9: chr12:39756943:39756944:-_ENSG00000139116_ENST00000544797|hu_mus|hu_hu_hu_mus_False|28_88 (ssRNA)
RNA: GGGAGUUCUACAGUCCGACGAUCGGUUUGGCUGUUACCCCCAAGGGAAUCCUGUAGGAGUCUUGUCAGCUUAGAGUCUCUGUAAGGGACAUGGGUGGCUCUCUUGCUCUUGUCUCCCAAGGCGCUGAUUACAUUCCCAAGAGCCAACAGAGGAUUGAGCAUCA
B10: chrX:20428832:20428833:+_ENSMUSG00000001127_ENSMUST00000120356|mus_mus|FALSE|FALSE (ssRNA)
RNA: GGGAGUUCUACAGUCCGACGAUCACAAUGCUGGUGGAACUUGUAGCCACAGGUCUGGCAGCGGAAUCCAUGGAACAGAAACUUAAGGCAGAAGUCACAGAAGGCCAGGCUGAAGAAUGUCUUCCGUACAAAAUUGUGCAUGGUCAACAGAGGAUUGAGCAUCA
B11: 120510811_120512209_1312_CDS_ENSG00000134250_ENST00000256646|human|control|control (ssRNA)
RNA: GGGAGUUCUACAGUCCGACGAUCGCAAGGAUUGCUGAUGCAUGCAUCAUCCAGAUGACACAGGAGACCUGCCUUCCCCUCUGGGCACAUGCAAGAGAAGGAGGCCACACGGUCGAUGCAGGUGGAGCCUGGAGUACAGGAGGCCAACAGAGGAUUGAGCAUCA
B12: chr7:75932113:75932114:+_ENSG00000106211_ENST00000248553|hu_hu|hu_hu_hu_mus_False|18_98 (ssRNA)
RNA: GGGAGUUCUACAGUCCGACGAUCCUGCGACCACUCAUCCGGCAGCCGGGGCACCCCGAAAGCUUGAUCGAAGAGGCGGCUGUGUGCAGGGUACCAGUCCCGGAAUGGUUCCCAGCUGCCCCGCAGGAGCAGCGAGAAGGGCACCAACAGAGGAUUGAGCAUCA
B13: chr14:63888807:63888808:-_ENSG00000154001_ENST00000337537|hu_hu|motif|central (ssRNA)
RNA: GGGAGUUCUACAGUCCGACGAUCUUCAUUGCUGUCACUAGGAGGGAGAGUUCUGAAUAUAUUGCAAGAUACCAUUCGGACGGCUUCAGGGUAAGUCUGCUCUGUCAAACAGCCUCUGCUUAUUGUAAUGUAGUCCACCAGUUCCAACAGAGGAUUGAGCAUCA
B14: chr8:95500983:95500984:-_ENSG00000164944_ENST00000437199|hu_mus|FALSE|FALSE (ssRNA)
RNA: GGGAGUUCUACAGUCCGACGAUCAGAACACAUCUAUCGAGUAAAGGACCGUACAUGACGGCCUCUACCACUGCCUCCACUAACAAACUUUCCUCUCGAGCCUCCACUGCCGCUAUUUGUACUAGCCCAGGACGGUCCCAGGCCCAACAGAGGAUUGAGCAUCA

The list shows a part of the results.

The assay concerns the target T1, UNK ZnF1-3. Put plainly: nsRBNS (natural sequence RNA bind-n-seq); RBNS binding buffer (assumed for nsRBNS): 25 mM Tris pH 7.5, 150 mM KCl, 3 mM MgCl2, 0.01% Triton X-100, 500 ug/ml BSA, 20 U/ml SUPERase-In, 4 C; UNK is unkempt and MSI1 is Musashi-1; names of the RNAs are library labels; protein concentration not given here; high values mean tight binding.
On to B1, for which the binding signal turned out to be 0.789 enrichment R. The figure for B2 is 1.41 enrichment R; for B3 it is 0.626 enrichment R. In turn, B4 displayed a binding signal of 2.09 enrichment R.

Take B5: the binding signal stood at 0.814 enrichment R.

Molecule B6 had a binding signal of 0.445 enrichment R. In the case of B7 it was 0.515 enrichment R; in that of B8, 1.19 enrichment R; in that of B9, 0.872 enrichment R. The molecule B10 displayed a binding signal of 1.28 enrichment R. In turn, B11 registered a binding signal of 1.56 enrichment R. The figure for B12 is 0.936 enrichment R. As to B13, the binding signal was 0.955 enrichment R. In the case of B14 it was 0.997 enrichment R.
